# Measurements as given in the BET-seq Pho4 binding data (Le et al. 2018).
# The other results are listed elsewhere or left out. Values were computed here from the reads of four pooled replicates and scatter widely.
# Target: T1, Pho4 (S. cerevisiae) (UniProt P07270)
# T1 sequence: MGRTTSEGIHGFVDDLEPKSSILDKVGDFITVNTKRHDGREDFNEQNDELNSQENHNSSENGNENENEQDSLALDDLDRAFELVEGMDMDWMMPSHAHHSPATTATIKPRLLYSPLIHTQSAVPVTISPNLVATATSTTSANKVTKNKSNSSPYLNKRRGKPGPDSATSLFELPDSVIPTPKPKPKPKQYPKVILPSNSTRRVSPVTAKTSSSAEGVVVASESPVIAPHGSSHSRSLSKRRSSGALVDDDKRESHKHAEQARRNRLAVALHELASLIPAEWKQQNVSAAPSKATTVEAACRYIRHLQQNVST
# Test: relative binding free energy (BET-seq); higher = weaker binding
# Conditions: reference: library average
row,Sequence,relative binding free energy [kJ/mol]
1,GTAGTCACGTGTGTAT,0.795
2,CGGGGCACGTGAAGCT,0.544
3,GTTCTCACGTGGGGTC,0.795
4,AAAATCACGTGAGAGT,2.05
5,TGTGTCACGTGATTTG,0.753
6,GGGGTCACGTGCTGGG,0.377
7,CAGGGCACGTGGAGGA,-1
8,TGCCTCACGTGTGGGA,1.13
9,CGAGTCACGTGGGGAT,-0.251
10,AATGACACGTGGTGAG,0.0837
11,TCAGTCACGTGTAAGG,0.711
12,CAGGGCACGTGGTGTA,-0.879
13,ATAGTCACGTGGGCGC,0.0837
14,ATATGCACGTGTTGCG,0.0837
15,CATGTCACGTGTAGGT,0.544
16,TTATGCACGTGATAAA,0.126
17,GTAACCACGTGTATGT,0.628
18,GTCAGCACGTGGGCTG,-0.335
19,TGGTACACGTGGGACG,0
20,ATGATCACGTGTAGGA,1
21,GCGGGCACGTGGAGGT,-0.126
22,TGGCTCACGTGGTCGT,0.544
23,AGTTGCACGTGTACGG,0.293
24,TTGATCACGTGAATAA,2.01
25,TTGGTCACGTGAGATT,1.21
26,TGTGCCACGTGAATTG,0.502

row,Sequence,relative binding free energy [kJ/mol]
1,GGGGTCACGTGGCGTT,0.711
2,TCTTGCACGTGCGGTT,-0.167
3,GGAAACACGTGGGATT,-0.167
4,GGTTGCACGTGGGGAT,-0.251
5,GGACTCACGTGTTTGT,1.05
6,ATGATCACGTGTGAAA,1.05
7,ATGCTCACGTGAGTGG,0.711
8,TTTGGCACGTGGGGTC,-0.669
9,GAAATCACGTGGGGTT,0.92
10,GGTTACACGTGATCGG,1.21
11,TAGTTCACGTGGCGAG,1.17
12,TCTTTCACGTGTTTTC,1.42
13,TGTTTCACGTGGCAGA,0.879
14,TATAGCACGTGGTTGG,-0.795
15,GAATTCACGTGGGGTA,0.544
16,AAGGTCACGTGGTAAA,0.544
17,TGGGACACGTGTTTTC,-0.0418
18,AGTATCACGTGACGGT,0.753
19,GGATGCACGTGTTCTT,0.837
20,GTATGCACGTGAAAGG,1.34
21,TCTTGCACGTGGTTCT,0.293
22,GTGGTCACGTGAAGTG,1.38
23,CGGTACACGTGGGAAG,0
24,TGTGTCACGTGTCTAA,0.209
25,TTTAACACGTGAAGGA,0.711
26,CATTGCACGTGAAGGT,0.167

row,Sequence,relative binding free energy [kJ/mol]
1,AATAGCACGTGCGAGT,0
2,AGTAGCACGTGTGCTA,0.251
3,GGCGACACGTGGTGTT,-0.167
4,TTATACACGTGACGTG,0.167
5,TAAGACACGTGGTGGT,-0.335
6,TATAGCACGTGGATTA,0.0837
7,TCATGCACGTGAAGTG,0.502
8,GGTATCACGTGGACGA,1.38
9,TTCTGCACGTGGAGTT,0.251
10,TGTAGCACGTGGTTGT,-0.418
11,GGGGCCACGTGAGTTT,1.13
12,GCCGGCACGTGTAGGG,0.126
13,GAGAGCACGTGTTGGA,0.167
14,GAGGACACGTGTTTCG,0.586
15,AAATGCACGTGTGTTA,0.502
16,TTCTTCACGTGTATGC,1.17
17,GAAGGCACGTGCGGGC,-0.502
18,TGCCGCACGTGGTAGT,0
19,TACTACACGTGTTTGG,0.209
20,GGTTGCACGTGGGTAC,-0.586
21,AGAAGCACGTGTTGAG,-0.0837
22,GTTGGCACGTGCTTGC,-0.167
23,TCATTCACGTGGGCGG,0.293
24,GTATACACGTGTGGTA,0.335
25,CGCAGCACGTGTTGGG,0.126
26,AGTGGCACGTGTTATT,-0.0418

row,Sequence,relative binding free energy [kJ/mol]
1,TTTAACACGTGTGTCT,-0.46
2,CGTGGCACGTGACAGG,0.0418
3,TTTAGCACGTGAGGGC,0.418
4,GGCGTCACGTGGAGTT,0.753
5,AGCGGCACGTGGGGGA,-1.17
6,TTTAACACGTGTAGGG,0.209
7,TACGGCACGTGGGTCG,-1.55
8,TGGGTCACGTGTAACA,0.753
9,TGTTGCACGTGACTTT,0
10,GTCGGCACGTGTGCGA,0.377
11,CTGGTCACGTGTTTAA,0.586
12,CATTGCACGTGTTTAG,-0.293
13,GTTTTCACGTGAACTT,1.63
14,TGGGTCACGTGGGGCA,-0.418
15,TACGTCACGTGGGGCG,-0.669
16,TGAAACACGTGGGCAG,-0.418
17,ATTGACACGTGAGGCT,0.669
18,TAGACCACGTGTTGGT,-0.377
19,CTACTCACGTGTGGGG,0.502
20,TTGGGCACGTGCAATG,-0.209
21,CGTTTCACGTGTCGGC,1.92
22,TTCTTCACGTGTGGTA,1.09
23,TGGTGCACGTGTATCT,0.377
24,GGCCGCACGTGAGGGT,1.05
25,GGACCCACGTGTGTGG,-0.46
26,GATTACACGTGGGGTG,0.167

row,Sequence,relative binding free energy [kJ/mol]
1,TTTCTCACGTGTATAA,1.26
2,TCTTTCACGTGGCGGA,1.51
3,GAGATCACGTGGGGGA,0.126
4,TTAGGCACGTGCATTG,-0.962
5,GGTGGCACGTGGACGT,-0.335
6,AGGTGCACGTGAGTCT,0.167
7,ACGAGCACGTGGGAGT,-1.09
8,GTTGTCACGTGTATCG,0.837
9,GTGGTCACGTGGGATT,0.628
10,GGTTGCACGTGGGGAC,-0.502
11,TTAGCCACGTGTGTGG,-0.418
12,AAGAGCACGTGTTAGG,-0.502
13,TTTGGCACGTGTGGGC,0
14,GTGTTCACGTGCGGTG,1.05
15,AGAAGCACGTGTGGAT,-0.628
16,CTAGTCACGTGGGGTT,-0.335
17,TAGCACACGTGGGGAG,-0.544
18,AGTGGCACGTGGGAAC,-0.418
19,ACCGGCACGTGGGGGT,-0.377
20,CGGTTCACGTGGGGAA,0.711
21,TGGCACACGTGGGCGA,-0.126
22,CTGAGCACGTGTGGGT,-0.586
23,GGGGACACGTGTCGTT,0.251
24,TAGTGCACGTGAGCGG,0.251
25,TTCGGCACGTGGTGGT,-1.05
26,GCTGGCACGTGGCATG,-0.377

row,Sequence,relative binding free energy [kJ/mol]
1,CATTTCACGTGGGTCT,0.795
2,GGTGTCACGTGTAGAG,0.795
3,TAATGCACGTGGGAGA,-1.26
4,TTTTACACGTGGCTTG,0.167
5,GCGTACACGTGAGGTG,1.26
6,GGCCGCACGTGTCGGG,0.628
7,TGAAACACGTGATAAG,2.18
8,GGGTACACGTGATATG,0.418
9,ATGTCCACGTGTAGGA,0.251
10,GCGTGCACGTGTGCGT,-0.293
11,GTATCCACGTGTGAGG,0.502
12,TTGTACACGTGGCAAG,0.209
13,AGAGTCACGTGGAAGG,0.628
14,TAGTTCACGTGTTTAC,1.3
15,AGGCCCACGTGGTGGA,-0.544
16,GTTGGCACGTGACAGT,-0.544
17,GTAGTCACGTGCTGGT,0.293
18,GTTCGCACGTGTGTAT,-0.126
19,TTATGCACGTGATTTC,0.753
20,GATGTCACGTGAATTA,1.8
21,TCAAACACGTGTGGTG,-0.251
22,TTAAGCACGTGCGTGC,-0.418
23,TTAAGCACGTGTCGTT,-0.126
24,GGTGCCACGTGGCGGG,-0.837
25,ATTATCACGTGTGACG,0.711
26,GAAGGCACGTGCGGTT,-0.167

row,Sequence,relative binding free energy [kJ/mol]
1,GGTCTCACGTGCGTTT,1.34
2,GTTAGCACGTGTTAAA,0.377
3,TCTTGCACGTGAGGGA,0.795
4,ATGCCCACGTGGGGGG,-1.05
5,AATAACACGTGGTTTG,-0.335
6,TTGGACACGTGTTGAG,0.167
7,CCTGGCACGTGGGTAG,-1.17
8,GACTGCACGTGTTGGT,0.251
9,TTTTGCACGTGACGAA,0.293
10,GTTCACACGTGTGAGG,0.795
11,GTTGTCACGTGGACTA,0.753
12,CGGTGCACGTGAGCGT,0.418
13,GGGGTCACGTGTGCGA,0.669
14,TCAGACACGTGTTTGG,-0.377
15,GGGGTCACGTGCAGTA,0.92
16,TTTGTCACGTGGCAGC,0.0418
17,TGGTCCACGTGGCTTG,-0.251
18,GGTGTCACGTGTGAGG,1
19,ATGGGCACGTGTAGTG,-0.335
20,TGCGGCACGTGAGAAG,0.46
21,ATATGCACGTGTATTG,-0.335
22,AAGTTCACGTGAAAGT,1.38
23,GTGCTCACGTGTTAGG,1.13
24,GATATCACGTGAGTTT,1.55
25,ATAATCACGTGGATTG,0.335
26,ATGAGCACGTGGCGGG,-1.21

row,Sequence,relative binding free energy [kJ/mol]
1,TGGGGCACGTGAGTAT,0.586
2,TGTGGCACGTGTGCTT,-1.05
3,TCTTACACGTGGGTCT,0.586
4,TTGAGCACGTGGGGTA,-0.795
5,GAATGCACGTGGGGGC,-0.377
6,AGTATCACGTGGGCTG,0.586
7,TGGGGCACGTGGACCT,-0.795
8,GTTTTCACGTGTTCCT,1.17
9,CAGTACACGTGATGTT,0.92
10,AAAGGCACGTGCCGGG,-0.711
11,AGGCTCACGTGTGAGG,1.13
12,CTATGCACGTGGTTGG,-0.251
13,TTAGTCACGTGAGGGG,1.59
14,ATAGGCACGTGGGGTT,-1.21
15,TAGGGCACGTGACTAG,0.0418
16,TCGGGCACGTGCTGGG,-0.879
17,ATCGTCACGTGGTGTG,0.293
18,TTGGGCACGTGGTTAA,-1.05
19,GGTGTCACGTGCCATT,0.251
20,GGGATCACGTGGCAGT,0.669
21,TAGCGCACGTGAGGGT,-0.0837
22,AAAGTCACGTGTAGAG,0.46
23,AAGATCACGTGGATTG,0.502
24,TTTCGCACGTGGTCGT,-0.335
25,GGGTTCACGTGACGGA,2.22
26,TATGGCACGTGTAGAG,-0.209

row,Sequence,relative binding free energy [kJ/mol]
1,GGTTTCACGTGTCCGT,1.46
2,TAAGTCACGTGTATAG,-0.628
3,TTTGACACGTGTGTCA,0.126
4,GGGCGCACGTGGTAGG,-0.753
5,AGGCACACGTGAGTTG,1.09
6,TGTGACACGTGTGTTT,-0.167
7,CCTGGCACGTGGTTGT,-0.753
8,GGGTGCACGTGGTAGG,-0.377
9,TGTGCCACGTGTGCGA,0.0418
10,GATTTCACGTGTATGG,0.753
11,TTGGGCACGTGTATAT,-0.251
12,CTTTTCACGTGAAGTA,1.72
13,TTGCTCACGTGTGCGA,1.17
14,GGGTACACGTGTAGGT,0.795
15,ATCGTCACGTGGAGGT,0.586
16,ATCGACACGTGTGGTT,0.502
17,TAGGGCACGTGTCTTG,-0.335
18,AGTGGCACGTGAAGAC,1.05
19,ATGTGCACGTGAGTGT,0.46
20,TGATCCACGTGGTTGG,-0.335
21,GATGTCACGTGCGGGT,0.753
22,TGTTTCACGTGAGGGT,1.84
